From PubChem BioAssay AID1963870 (Molecular Pharmacology Branch, DTP, NCI, 2024)
For part of its entries the source gives two or more results. The list is limited to them. The source may hold further records. The values listed for one entry repeat one measurement in other runs, samples, wells, individuals or studies. Marks such as [2022-09] give the month of the run. Counts like (3×) give the number of equal values in this list.

Tested on: 292921-168-R-J2-PDC KRAS tumor spheroid viability
Test: Anticancer human tumor 292921-168-R-J2-PDC patient-derived pancreatic carcinoma cell line growth inhibition [KRAS2]
Conditions: for viability, T/C: stronger effect = lower value; for IC50: compound alone
Text: Multicellular complex tumor spheroid response to RAS pathway inhibitors in combination with a targeted agents in patient-derived cell lines with oncogenic KRAS variants from multiple cancer types
A high-throughput screen of multi-cell type tumor spheroids was designed to identify active combinations of targeted small molecules and KRAS pathway inhibitors. Complex spheroids include a stromal component modeled by human endothelial cells (HUVEC) and fibroblasts modeled by human mesenchymal stem cells (MSCs). The concentration ranges selected for each drug and investigational agent were based upon clinically achievable concentrations if the clinical Cmax of the agent was known.
Compounds. The drugs and investigational agents: BI-3406 (NSC825286), BAY-293 (NSC824723), batoprotafib (TNO155; NSC825523), sotorasib (AMG 510; NSC818433), MRTX1257 (NSC819558), elimusertib (BAY 1895344; NSC800525), molibresib (GSK525762; NSC774829), temuterkib (LY3214996; NSC803410), venetoclax (NSC766270), alisertib (NSC759677), olaparib (NSC753686), talazoparib (NSC767125), erdafitinib (NSC781556), ipatasertib (NSC767898), cabozantinib (NSC761068), nintedanib (NSC756659), abemaciclib (NSC768073), docetaxel (NSC628503), trametinib (NSC758246), and sapanisertib (NSC764658) were obtained from the National Cancer Institute (NCI) Developmental Therapeutics Program Chemical Repository. The FDA-approved anticancer drug set is available from the Developmental Therapeutics Program. […] The stock solutions were prepared in dimethyl sulfoxide (DMSO, Sigma-Aldrich, St. Louis, MO, cat. D2650) at 800-fold the tested concentration and stored at -70 degrees C prior to their use. All drugs and investigational agents were tested over a range starting from a high concentration at or near the clinical Cmax and decreasing in half-log increments. If the clinical Cmax for an agent had not been determined, the highest concentration tested was 10 microM.
Cell Culture. All cells were maintained in an incubator at 37 degrees C and 5% CO2 with 95% humidity. The PDC lines were cultured according to standard operating procedures established by the NCI PDMR (https://pdmr.cancer.gov/sops/default.htm). Briefly, all PDCs were thawed and cultured in Matrigel-coated flasks prepared with a working solution of 1X Ham's F-12 nutrient mix, without supplementation (Invitrogen, Waltham, MA, cat. 11765054), 100 U/mL penicillin-streptomycin (Invitrogen, cat. 15140122), and 2.5% Matrigel (Corning Inc., Corning, NY, cat. 354248) for the first three passages. All PDCs were cultured in complete DMEM/F-12 media containing advanced DMEM/F-12 (Invitrogen, cat. 12634028), 4.9% defined fetal bovine serum, heat inactivated (HyClone Laboratories Inc., Logan, UT, cat. SH30070.03HI), 389 ng/mL hydrocortisone (Sigma-Aldrich, cat. H4001), 9.7 ng/mL human EGF recombinant protein (Invitrogen, cat. PHG0313), 23.4 microg/mL adenine (Sigma-Aldrich, cat. A2786), 97.3 U/mL penicillin-streptomycin (Invitrogen, cat. 15140122), 1.9 mM L-glutamine (Invitrogen, cat. 25030081), and 9.7 microM Y-27632 dihydrochloride (Tocris Bioscience, Bristol, United Kingdom, cat. 1254). The PDCs were cultured in complete DMEM/F12 media without 9.7 microM Y-27632 dihydrochloride for at least two passages prior to the screen. The established cell line HOP-62 was cultured in RPMI 1640 medium, HEPES (Invitrogen, cat. 22400105) with 10% defined fetal bovine serum (HyClone Laboratories Inc., cat. SH30070.03) and 2 mM L-glutamine (Invitrogen, cat. 25030081). The pooled donor HUVEC were cultured in endothelial cell growth medium 2 (PromoCell, Heidelberg, Germany, cat. C-22011) and the hMSC were cultured in mesenchymal stem cell growth medium 2 (PromoCell, cat. C-28009). For all experiments, HUVEC and hMSC were used at passages </=5, while the malignant cell lines were used at passages </=15. […]

[1] = compound alone 1 µM, spheroids with HUVEC and MSC
[2] = compound alone 0.0316 µM, spheroids with HUVEC and MSC
[3] = compound alone 0.1 µM, spheroids with HUVEC and MSC
[4] = compound alone 0.316 µM, spheroids with HUVEC and MSC
[5] = compound alone 3.16 µM, spheroids with HUVEC and MSC
[6] = compound alone 10 µM, spheroids with HUVEC and MSC
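Further: drug exposure lasted seven days after spheroids formed for three days.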
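Wherever viability, T/C is given: percent of DMSO vehicle control viability which is 100%.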

SMILES	viability, T/C [1]	viability, T/C [2]	viability, T/C [3]	viability, T/C [4]	IC50 (spheroids with HUVEC and MSC)	IC50 (combination, run of 08/19/2021)	viability, T/C [5]	viability, T/C [6]	IC50 (run of 08/26/2021, spheroids with HUVEC and MSC)	viability, T/C (compound alone 0.000316 µM, spheroids with HUVEC and MSC)
COc1cc2nccc(Oc3ccc(NC(=O)C4(C(=O)Nc5ccc(F)cc5)CC4)cc3)c2cc1OC	77.7, 79.1, 69.2, 99.2, 83.5%	–	–	–	–	–	–	–	–	–
COC(=O)c1ccc2c(C(=Nc3ccc(N(C)C(=O)CN4CCN(C)CC4)cc3)c3ccccc3)c(O)[nH]c2c1	21.1, 13.9, 37.5, 45.9, 39.9%	62.7, 57.1, 95, 96.4, 97.6%	57.8, 38, 74.9, 82.6, 88.7%	22.3, 17.2, 67, 60.1, 68.3%	106, 46.6, 645, 575, 622 nM	–	–	–	–	–
C=CC(=O)N1CCN(c2nc(=O)n(-c3c(C)ccnc3C(C)C)c3nc(-c4c(O)cccc4F)c(F)cc23)C(C)C1 (stereo not given)	98.5, 112, 80.3, 42.7, 92.4, 140, 109, 115, 108 (2×), 103% [2021-08] and 109, 110, 98.3, 97.4, 111, 122% [2021-09]	–	120, 108, 96.9, 49.9, 101, 119, 107, 116, 104 (2×), 110% [2021-08] and 108, 109 (2×), 104, 106, 110% [2021-09]	120 (2×), 89.4, 45.5, 95, 134, 111, 121, 115, 103, 112% [2021-08] and 105, 112, 84.3, 103, 115, 119% [2021-09]	–	7.2 µM, 5.55 µM, 3.5 µM, < 100 nM, 5.29 µM, 8.35 µM	72.7, 74.5, 51.6, 51.3, 69.2, 94.5, 70.9, 64.5, 85, 77.5, 65.6% [2021-08] and 70, 76, 71.6, 73.4, 76.1, 72.7% [2021-09]	41.1, 24.3 (2×), 28.2, 47.2, 26.1, 41.7, 28.9, 27.2, 21.3, 18.1% [2021-08] and 25, 26.4, 22.1, 24.1, 25.9, 24.5% [2021-09]	–	–
O=C(c1cc(Cc2n[nH]c(=O)c3ccccc23)ccc1F)N1CCN(C(=O)C2CC2)CC1	85.9, 90.2, 108, 113, 102%	–	74.3, 86.5, 94.3, 102, 94.5%	83.6, 81.4, 102, 107, 110%	–	–	65.1, 74.4, 75, 104, 94.2%	–	–	–
CC1OCC2(CCN(c3cnc(Sc4ccnc(N)c4Cl)c(N)n3)CC2)C1N (stereo not given)	25.4, 78.5, 137, 75.9, 45.7, 52.6, 44, 45.9, 43.6, 49, 50.9% [2021-08] and 45.3, 48.2, 45.7, 46.4, 44.9, 44.2, 42.6, 44.6% [2021-09]	–	19.3, 81.4, 90.6, 76.4, 76.8, 73.7, 82.7, 80.8, 79.7, 82.5, 83.2% [2021-08] and 69.5, 71.4, 71.7, 72.9, 69.8, 76.3, 74.9, 72.3% [2021-09]	23.4, 58.1, 80.8, 66.8, 62.6, 67.2, 55.8, 59.6, 59.7, 63.7, 65.6% [2021-08] and 52.5, 59, 62.1, 52.3, 47.7, 60.4, 52.9, 55.4% [2021-09]	–	< 100 nM, 5.4 µM, 10 µM, > 10 µM, 714 nM, 1.25 µM	19.4, 29.7, 49.2, 70, 34.5, 39.6, 33.4, 37, 36, 41.6, 41% [2021-08] and 35.4, 35.9, 36.1, 36.2, 31.5, 34.6, 33.4, 35% [2021-09]	21.7, 56.9, 55.5, 62, 36.5, 35.4, 31, 33.5, 28.1, 31.4, 33.3% [2021-08] and 27.9, 28.3, 30.6, 31.8, 29.1, 33.3, 30.8, 31.4, 32.4% [2021-09]	–	–
COc1cc2nc(C)nc(NC(C)c3cc(N)cc(C(F)(F)F)c3)c2cc1OC1CCOC1 (stereo not given)	71.1, 65.8, 126, 81.7, 82.3, 72.8, 93, 93.4, 82.8, 77, 91.8% [2021-08] and 78.5, 68.1, 71.2, 73, 79.3% [2021-09]	–	105, 109, 119, 132, 101 (3×), 94.6, 92.3, 98.9, 96.3% [2021-08] and 91.3, 87.5, 83, 88.2, 93.8% [2021-09]	72, 90.7, 112 (2×), 98.8, 91.5, 93.4, 93.7, 95.9, 83.1, 95.4% [2021-08] and 79, 85.5, 80.8, 78.3, 90.3% [2021-09]	–	> 10 µM, 8.72 µM, 5.04 µM, 3.86 µM	76.5, 62.1, 86.7, 79.7, 69, 59.3, 72, 79.5, 76.1, 64.4, 66.2% [2021-08] and 62, 64.4, 58.4, 61.6, 55.4% [2021-09]	61.3, 62.7, 75, 43.4, 25.2, 18.5, 55.6, 37.8, 36.6, 34.8, 22.4% [2021-08] and 24.4, 24.2, 26.3, 27.5, 27.2% [2021-09]	> 10 µM, 7.14 µM, 6.64 µM, 5.23 µM, 4.84 µM	–
CNCc1ccccc1-c1csc(C(C)Nc2nc(C)nc3cc(OC)c(OC)cc23)c1 (stereo not given)	118, 92.5, 76, 73.5, 68.1, 63.7, 63.4, 74.4, 63.2, 61.2, 78% [2021-08] and 67.3, 68.8, 69.8, 57.5, 61.5% [2021-09]	–	67.6, 96.3, 104, 110, 99.6 (2×), 97.7, 101, 92.6, 93.2, 92.3% [2021-08] and 85.8, 91, 87.4, 88.3, 83.8% [2021-09]	–	–	5.75, 1.7, 1.49, 1.45, 1.36, 1.28 µM	132, 0.2, 0.1, 0.21, 0.12 (2×), 0.08 (2×), 0.14, 0.44% [2021-08] and 0.14, 0.12, 0.07, 0.1% [2021-09]	–	–	–
C=CC(=O)N1CCN(c2nc(OCC3CCCN3C)nc3c2CCN(c2cccc4cccc(C)c24)C3)CC1CC#N (stereo not given)	66.4, 70.2, 46.7, 18.5, 41.8, 38.4, 41.2, 38.6, 62.9, 50.2, 40.2% [2021-08] and 45.3, 38.1, 30.1, 32.6, 28.9% [2021-09]	57.3, 104, 113, 27.5, 101 (3×), 107 (2×), 102, 98.3% [2021-08] and 101, 97.5, 93.2, 110, 96.4% [2021-09]	97.8, 92.4, 88.8, 23.5, 99.4, 98.2, 97.7, 98.9, 99.8, 90.5, 111% [2021-08] and 94.4, 82.4, 80.7, 93.2, 91.6% [2021-09]	58.8, 82.3, 54.2, 22.8, 83, 80.5, 86.2, 81.4, 87.4, 89.2, 97.2% [2021-08] and 105, 76.3, 78, 79.5, 74.2% [2021-09]	–	> 3.16 µM, 1.33 µM, 500 nM, < 31.6 nM, 794 nM, 728 nM	117, 0.33, 0.46, 0.14, 0.13, 0.1, 0.38, 0.48, 0.98, 0.45, 1.2% [2021-08] and 0.19, 0.14, 0.11, 0.2% [2021-09]	–	–	–
CC(C)n1nc(-c2ccc3oc(N)nc3c2)c2c(N)ncnc21	–	–	–	–	–	–	–	–	–	105, 75.7, 83.5, 82.9, 82.2%
